Results are given in words; binding and its absence hold for the method and conditions named. Binding seen in cells or lysates may run through a third protein. Some entries that bind do so weakly or less than the wild type. For part of these data: Tags and fused reporters may be left off the sequences shown.
What was measured:
[1] = target: T1, Flag-tagged ZASC1, full length, wild type (human) (UniProt Q9UID6); assay: co-IP; HEK293 cells co-transfected; immunoprecipitation of the Flag-tagged protein with anti-Flag beads, blot for the Myc- or HA-tagged partner (Fig 1C, S1, S3, Fig 7A, 7D); TBSN buffer; micrococcal nuclease in the immunoprecipitation
T1 sequence: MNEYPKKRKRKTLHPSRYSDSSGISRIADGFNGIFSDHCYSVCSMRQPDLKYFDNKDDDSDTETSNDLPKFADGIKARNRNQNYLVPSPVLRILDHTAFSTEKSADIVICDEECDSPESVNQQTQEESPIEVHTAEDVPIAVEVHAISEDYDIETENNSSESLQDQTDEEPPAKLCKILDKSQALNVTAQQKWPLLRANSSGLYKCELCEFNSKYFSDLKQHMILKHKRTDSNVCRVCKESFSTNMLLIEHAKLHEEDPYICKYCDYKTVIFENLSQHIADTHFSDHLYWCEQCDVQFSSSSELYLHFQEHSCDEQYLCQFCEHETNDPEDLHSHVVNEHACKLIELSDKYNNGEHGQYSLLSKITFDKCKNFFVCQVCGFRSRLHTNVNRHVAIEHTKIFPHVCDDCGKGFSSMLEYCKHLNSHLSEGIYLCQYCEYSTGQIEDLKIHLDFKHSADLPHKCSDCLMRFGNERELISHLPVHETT

V5-tagged HDAC10 = target: T2, V5-tagged HDAC10 (UniProt Q969S8); assay: co-IP; HEK293 cells co-transfected with V5-tagged HDAC10 and Myc-ZBTB2 (Fig 7B); the antibody that precipitated V5-HDAC10 is not told
T2 sequence: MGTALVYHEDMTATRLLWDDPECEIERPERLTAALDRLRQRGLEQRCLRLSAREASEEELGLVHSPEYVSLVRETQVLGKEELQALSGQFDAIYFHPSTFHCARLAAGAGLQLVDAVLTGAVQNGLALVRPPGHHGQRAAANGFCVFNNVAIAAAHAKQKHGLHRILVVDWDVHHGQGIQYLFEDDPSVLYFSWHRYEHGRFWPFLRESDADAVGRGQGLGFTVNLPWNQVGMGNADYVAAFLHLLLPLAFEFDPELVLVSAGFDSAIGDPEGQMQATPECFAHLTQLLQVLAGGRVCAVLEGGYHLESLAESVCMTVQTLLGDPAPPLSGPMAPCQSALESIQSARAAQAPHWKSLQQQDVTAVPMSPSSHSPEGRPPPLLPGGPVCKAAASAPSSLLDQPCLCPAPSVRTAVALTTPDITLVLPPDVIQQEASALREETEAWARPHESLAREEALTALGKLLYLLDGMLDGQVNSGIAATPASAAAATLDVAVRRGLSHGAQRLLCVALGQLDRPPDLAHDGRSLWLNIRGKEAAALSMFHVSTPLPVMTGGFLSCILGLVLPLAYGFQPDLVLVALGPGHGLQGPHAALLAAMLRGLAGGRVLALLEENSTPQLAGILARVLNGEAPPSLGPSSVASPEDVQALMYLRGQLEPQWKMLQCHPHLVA

Flag-tagged HDAC4 = Flag-tagged HDAC4 (UniProt P56524); assay: co-IP; HEK293 cells co-transfected; immunoprecipitation of the Flag-tagged protein with anti-Flag beads, blot for the Myc- or HA-tagged partner (Fig 1C, S1, S3, Fig 7A, 7D); TBSN buffer; micrococcal nuclease in the immunoprecipitation
Flag-tagged HDAC6 = Flag-tagged HDAC6 (UniProt Q9UBN7); assay: as above
Flag-tagged HDAC3 = Flag-tagged HDAC3 (UniProt O15379); assay: as above
FLAG-tagged HDAC9 = FLAG-tagged HDAC9 (UniProt Q9UKV0); assay: as above
Flag-tagged HDAC1 = Flag-tagged HDAC1 (UniProt Q13547); assay: as above
Flag-tagged HDAC7 = target: T3, Flag-tagged HDAC7 (UniProt Q8WUI4); assay: as above
T3 sequence: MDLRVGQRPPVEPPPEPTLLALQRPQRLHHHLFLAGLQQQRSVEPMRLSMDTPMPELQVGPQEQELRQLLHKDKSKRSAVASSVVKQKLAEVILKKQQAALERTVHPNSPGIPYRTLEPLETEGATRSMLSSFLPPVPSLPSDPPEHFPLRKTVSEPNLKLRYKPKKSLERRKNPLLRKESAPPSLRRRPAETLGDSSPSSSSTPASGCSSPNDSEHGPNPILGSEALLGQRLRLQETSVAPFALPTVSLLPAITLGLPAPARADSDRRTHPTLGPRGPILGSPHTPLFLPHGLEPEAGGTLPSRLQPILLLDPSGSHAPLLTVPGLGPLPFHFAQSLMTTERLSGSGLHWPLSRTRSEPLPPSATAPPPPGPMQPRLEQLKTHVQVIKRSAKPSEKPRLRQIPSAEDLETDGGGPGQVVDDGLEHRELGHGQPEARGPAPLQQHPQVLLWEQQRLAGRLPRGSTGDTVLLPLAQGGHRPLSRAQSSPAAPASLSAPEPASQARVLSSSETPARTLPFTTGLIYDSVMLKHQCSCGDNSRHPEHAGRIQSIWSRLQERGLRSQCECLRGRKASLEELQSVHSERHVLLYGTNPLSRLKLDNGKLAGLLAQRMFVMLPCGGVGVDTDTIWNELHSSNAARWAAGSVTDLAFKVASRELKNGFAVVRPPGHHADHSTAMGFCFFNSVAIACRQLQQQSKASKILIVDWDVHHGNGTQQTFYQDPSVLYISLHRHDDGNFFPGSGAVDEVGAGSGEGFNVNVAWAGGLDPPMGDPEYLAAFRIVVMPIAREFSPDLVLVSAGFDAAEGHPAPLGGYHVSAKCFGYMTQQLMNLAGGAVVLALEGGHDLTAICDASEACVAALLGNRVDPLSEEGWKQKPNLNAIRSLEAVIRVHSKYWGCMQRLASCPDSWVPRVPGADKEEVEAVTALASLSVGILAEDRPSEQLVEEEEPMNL

[2] = target: Flag-tagged HIV-1 Vpr (HIV-1 (NL43)) (UniProt P12520); assay: co-IP

| binding [1] | Substance | binding (V5-tagged HDAC10) | binding (Flag-tagged HDAC4) | binding (Flag-tagged HDAC6) | binding (Flag-tagged HDAC3) | binding (FLAG-tagged HDAC9) | binding (Flag-tagged HDAC1) | binding (Flag-tagged HDAC7) | binding [2] |
| --- | --- | --- | --- | --- | --- | --- | --- | --- | --- |
| no binding | Myc-Sp1 (from UniProt P08047 1-785) | – | – | – | – | – | – | – | – |
| – | Myc-tagged ZBTB2, full length, wild type (from UniProt Q8N680 1-514) | binds weakly | binds | binds weakly | binds weakly | binds | binds | binds | no binding |

From publication PMC7946322
